Laboratory results published in PubChem BioAssay AID686979 (National Center for Advancing Translational Sciences (NCATS), 2013).
Where “and” joins values, the source holds several entries; their conditions need not be identical. Equal values may be shown once. In all, about 420,000 compounds went through this assay and about 50,000 (12%) were called active. Inconclusive results, whose numbers are uncertain, are shown with a selection of clear calls. The call rests on the fitted dose curve; in most records, active means well fitted inhibition curve with a large enough effect; inconclusive means small, poorly fitted or top-dose-only effect; inactive means flat fitted curve, though single readings scatter. Potencies beside an inconclusive call are fits to weak or partial responses and may not hold up.

experiment: qHTS for Inhibitors of human tyrosyl-DNA phosphodiesterase 1 (TDP1): qHTS in cells in presence of CPT; conditions: chicken DT40 Tdp1-/-;hTDP1 cells + 20 nM CPT, ATP luminescence, 48 h; series mostly up to 46.2 µM; further: nearly all actives have a fitted effect of over 55% in size
In short: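 Cell growth measured by CellTiter-Glo luminescence after a minimum 48 h, 37 C compound exposure with 20 nM CPT in Tdp1-knockout DT40 cells stably expressing hTDP1, seeded 400/well; qHTS titration format.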
Potency means the concentration at half of the fitted maximal effect; tags describe the fitted curve by direction and shape.

| SMILES | Potency |
| --- | --- |
| O=C(Nc1cccc(F)c1)c1ccc(S(=O)(=O)N2CCCCC2)cc1 | inconclusive: 29.1 µM [inhibitor, single point] |
| Cc1ccc2oc(=O)c3cc(C(=O)NCCCN4CCCC(C)C4)sc3c2c1 (stereo not drawn) | inconclusive: 29.1 µM [inhibitor, single point] |
| Cc1ccccc1NC(=O)CCC(=O)N1CC(C)Sc2ccccc21 (stereo not drawn) | inconclusive: 23.1 µM [inhibitor, single point] |
| Cc1cccc(C)c1NS(=O)(=O)c1ccc(NS(=O)(=O)c2ccc3c(c2)OCCO3)cc1 | inconclusive: 29.1 µM [inhibitor, single point] |
| O=c1oc2ccccc2cc1-c1csc(Cc2nc(-c3ccc(Br)cc3)cs2)n1 | inconclusive: 29.1 µM [inhibitor, single point] |
| CCCc1[nH]n(-c2ccc([N+](=O)[O-])cc2)c(=O)c1C=NCCc1ccc(OC)c(OC)c1 | inconclusive: 29.1 µM [inhibitor, single point] |
| Cc1cccc(C)c1NC(=O)CN(C)C(C)C(=O)Nc1ccccc1-c1ccccc1 (stereo not drawn) | inconclusive: 16.4 µM [inhibitor, partial curve] |
| O=C(O)c1ccccc1C(=O)Nc1ccc(-n2nccc2C(F)(F)F)cc1 | inactive |
| C=Cc1ccc(COc2ccc3oc(-c4ccccc4)c(C(=O)OCC)c3c2)cc1 | inactive |
| COc1ccc(C=O)cc1Oc1nc(Cl)ncc1F | inconclusive: 29.1 µM [inhibitor, single point] |
| CCOC(=O)c1ccc(NC(=O)C2(S(=O)(=O)c3ccc(Cl)cc3)CC2)cc1 | inconclusive: 20.6 µM [inhibitor, single point] |
| C=C1CCN([C@@H](CC(C)C)C(=O)NCCC(C)C)S(=O)(=O)c2ccccc21 | inconclusive: 20.6 µM [inhibitor, single point] |
| COc1ccc(C(=O)N(c2ccc(OC)cc2)S(=O)(=O)c2ccc3c(c2)n(C)c(=O)n3C)cc1 | inconclusive: 29.1 µM [inhibitor, single point] |
| COc1ccc(OC)c(C2=NOC(C(=O)Nc3cc(C)on3)C2)c1 (stereo not drawn) | inactive |
| O=C(CSc1nnnn1-c1ccccc1Cl)Nc1ccc2c(c1)OCCO2 | active: 16.4 µM |
| Cc1cccc(C(=O)Nc2c(C#N)c(C)c(C)n2Cc2ccccc2)c1 | inconclusive: 29.1 µM [inhibitor, single point] |
| Cc1ccc(-n2c(C)cc(C(=O)CN3CCOCC3)c2C)cc1 | inactive |
| Cc1ccc(-c2nnc(Nc3ccccc3)c3ccccc23)cc1S(=O)(=O)NCc1nc2ccccc2[nH]1 | inconclusive: 29.1 µM [inhibitor, single point] |
| C=CCn1c(SCC(=O)c2cccs2)nc2sc(CC)cc2c1=O | active: 14.6 µM |
| N#C/C(=C\c1cccc(O)c1)C(=O)Nc1ccc2c(c1)OCCO2 | inconclusive: 9.2 µM [inhibitor, partial curve] |
| Cc1c(Cl)cccc1NC(=O)Cn1nnc2sc3c(c2c1=O)CCCC3 | inactive |
| O=C(Nc1sccc1C(=O)N1CCOCC1)c1cccnc1 | inconclusive: 29.1 µM [inhibitor, single point] |
| CCc1nc2ccc(C(=O)Nc3ccc(OC)c(OC)c3)cn2c1N(C)Cc1ccc(N(C)C)cc1 | inconclusive: 20.6 µM [inhibitor, single point] |

| SMILES | Potency |
| --- | --- |
| O=C(c1cc2ccc3cccnc3c2[nH]1)N1CCN(c2ccc(Cl)cc2)CC1 | inconclusive: 29.1 µM [inhibitor, single point] |
| O=C(NCc1ccccn1)C(=O)NCC1OCCCN1S(=O)(=O)c1ccc(F)cc1 (stereo not drawn) | inactive |
| COc1ccccc1C(=O)Nc1cccc(C(=O)OCc2cc(=O)n3nc(C)sc3n2)c1 | inactive |
| CC(=NOC(=O)c1ccc(I)cc1)c1nccs1 | inactive |
| CCOc1ccc(-n2c(SCC(=O)NC(C)CC)nc3n[nH]c(C)c3c2=N)cc1 (stereo not drawn) | inconclusive: 20.6 µM [inhibitor, single point] |
| CN(C)CCCCOc1ccc(Br)cc1Cl | inconclusive: 29.1 µM [inhibitor, single point] |
| CCOc1ccc(N(C(C)C(=O)N2CCCCCC2)S(C)(=O)=O)cc1 (stereo not drawn) | inconclusive: 20.6 µM [inhibitor, single point] |
| CCOc1ccc(/C=N/OCC(=O)NCc2cccs2)cc1 | inconclusive: 25.9 µM [inhibitor, single point] |
| Cc1cccc(N=Nc2cnc(N)s2)c1 | inconclusive: 29.1 µM [inhibitor, single point] |
| Cc1oc2c(O)c(O)ccc2c(=O)c1-c1cnn(-c2ccccc2)c1 | inconclusive: 29.1 µM [inhibitor, single point] |
| NC(=O)CSc1ncc2c(n1)-c1ccccc1N(Cc1ccc(Cl)cc1)S2(=O)=O | inconclusive: 10.3 µM [inhibitor, partial curve] |
| CCOC(=O)C1=C(C)NC(C)=C(C(=O)OCC)C1C(=O)OCC(=O)N1c2ccccc2CC1C (stereo not drawn) | inconclusive: 18.4 µM [inhibitor, single point] and inconclusive: 29.1 µM [inhibitor, single point] |
| Cc1cccc(N=Nc2c(N)n[nH]c2-c2ccc(Cl)cc2)c1 | inconclusive: 23.1 µM [inhibitor, single point] |
| O=C(CCc1nc(-c2ccccc2F)no1)NC1CCCCCC1 | inconclusive: 18.4 µM [inhibitor, partial curve] |
| O=C(NC(Cc1ccccc1)C(=O)N1CCN(c2ccc(F)cc2)CC1)c1ccccc1 (stereo not drawn) | inconclusive: 29.1 µM [inhibitor, single point] |
| CCn1c(SCc2cccc(C)c2)nnc1-c1ccc(C)cc1 | inconclusive: 18.4 µM [inhibitor, single point] |
| COc1ccc2[nH]c3c(c2c1)CCN1C(=O)C(CC(=O)NCc2ccc(OC)c(OC)c2)C[C@H](C(=O)N(C(C)C)C(C)C)[C@@]31C (stereo partly drawn) | inconclusive: 23.1 µM [inhibitor, single point] |
| O=S1(=O)CC(N2CCC(Cc3ccccc3)CC2)CN1C1CCCCC1 (stereo not drawn) | inconclusive: 29.1 µM [inhibitor, single point] |
| Cc1nn2c(NCCN3CCOCC3)c3c(nc2c1-c1ccccc1)CCCC3 | active: 2.59 µM |
| C/C(=N\NC(=O)CSCc1ccc([N+](=O)[O-])cc1)c1cccc(Br)c1 | active: 10.3 µM |
| O=C(Nc1cccc(Cl)c1Cl)c1cc(S(=O)(=O)NCCc2ccccc2)ccc1F | inconclusive: 16.4 µM [inhibitor, single point] |
| COc1ccc(S(=O)(=O)N2CCC(C)CC2)cc1OC | inactive |
| Cc1ccc(C(=O)O/N=C(\N)c2ccccn2)c(C)c1 | inconclusive: 25.9 µM [inhibitor, single point] |

| SMILES | Potency |
| --- | --- |
| Cc1noc(C)c1S(=O)(=O)N1CCC(C(=O)Nc2ccccn2)CC1 | inactive |
| O=C(Nc1ccc2oc(-c3ccc4ccccc4c3)nc2c1)c1ccc2c(c1)OCCO2 | active: 5.8 µM |
| Cc1cc(C)cc(OC(=O)N2CCOCC2)c1 | inactive |
| CC(C)c1noc(-c2ccccc2OCC(=O)Nc2ccccc2[N+](=O)[O-])n1 | inconclusive: 18.4 µM [inhibitor, single point] |
| COc1ccc(CNCc2cc(C)c(OC)cc2C)c(OC)c1 | active: 14.6 µM |
| CN(Cc1ccccc1F)c1cc2c(c3c1ccn3C)C1CCC2O1 (stereo not drawn) | inconclusive: 29.1 µM [inhibitor, single point] |
| O=C(N/N=C\c1cc(Br)c(Br)o1)c1cncc(Br)c1 | inconclusive: 29.1 µM [inhibitor, single point] |
| CS(=O)(=O)c1ccc(NC(=O)CCN2C(=O)NC3(CCCC3)C2=O)cc1 | inactive |
| COc1ccccc1C(=O)N/C(=C\c1cn(C)c2ccccc12)C(=O)N1CCCC1 | inconclusive: 29.1 µM [inhibitor, single point] |
| CCc1cc2c(=O)c(-c3nc4ccccc4n3C)coc2c(CN2CCCCC2C)c1O (stereo not drawn) | inconclusive: 23.1 µM [inhibitor, partial curve, poor fit] |
| COc1cc(CC(=O)Nc2cc(S(=O)(=O)N3CCOCC3)ccc2N2CCCC2)cc(OC)c1OC | inactive |
| CCc1ccccc1N(C)S(=O)(=O)c1ccc2[nH]cc(C(=O)N3CCc4ccccc43)c(=O)c2c1 | inconclusive: 29.1 µM [inhibitor, single point] |
| O=C1C2C3C=CC(C4CC34)C2C(=O)N1/N=C/c1c[nH]c2ccccc12 (stereo not drawn) | inactive |
| COc1cccc(CNc2ncnc3nc[nH]c23)c1 | inconclusive: 15.8 µM [inhibitor, single point] |
| COc1cc(/C=C(\C#N)C(=O)Nc2ccc(SC(F)F)cc2)cc(OC)c1OC | inconclusive: 29.1 µM [inhibitor, single point] |
| O=C(NCc1ccc2c(c1)CCN2C(=O)c1ccc(F)cc1)c1ccco1 | active: 20.6 µM |
| COc1ccc(-c2csc(NC3OC(=O)c4ccccc43)n2)cc1 (stereo not drawn) | active: 11.6 µM |
| CCCCOc1ccc(C2CC(=O)NC2=O)cc1 (stereo not drawn) | inactive |
| Cn1c(OCc2cccnc2)nc2c1c(=O)n(Cc1ccc(Br)cc1)c(=O)n2C | inconclusive: 23.1 µM [inhibitor, single point] |
| Cc1ccc2nc(SCC(=O)N3CCN(c4ccccc4)CC3)nc(=O)n2c1 | inactive |
| O=[N+]([O-])c1cc(/C=N/OCc2c(Cl)cccc2Cl)ccc1N1CCOCC1 | inconclusive: 18.4 µM [inhibitor, single point] |
| CCN(CC)CCNC(=O)c1sc2ncn(CC(=O)Nc3ccc(C)c(Cl)c3)c(=O)c2c1C | inconclusive: 29.1 µM [inhibitor, single point] |
